According to patent US20090018162A1, “USE OF 6-(3-CHLORO-2-FLUOROBENZYL)-1-[(2S)-1-HYDROXY-3-METHYLBUTAN-2-YL]-7-METHOXY-4-OXO-1,4-DIHYDROQUINOLINE-3-CARBOXYLIC ACID OR SALT THEREOF FOR TREATING RETROVIRUS INFECTION” (priority 2006, published 2009):
Structures can show the parent of a compound that is named as a salt. Where two headings read alike, the source gives them in different places.

Experiments:
[1] = test system: HIV-1 macrophage-tropic virus strains; assay: microbe, parasite or virus in culture; conditions: Human immunodeficiency virus 1, Macrophage, read-out: average IC50, drug-sensitive (wild-type) viruses in macrophage cultures, n=3 viruses
HIV-1 clinical isolates = assay: microbe, parasite or virus in culture
[2] = Human immunodeficiency virus 1, CCR5, in Homo sapiens, HIV-1 BR/92/025 (subtype C/C, R5) in PBMCs, modified assay with virus pre-incubation
[3] = Human immunodeficiency virus 1, PBMC, in Homo sapiens, HIV-1 BFC01 (Group O, R5) in PBMCs, modified assay with virus pre-incubation

| SMILES | IC50 [1] | IC50 (HIV-1 clinical isolates; [2]) | IC50 (HIV-1 clinical isolates; [3]) | IC50 (HIV-1 clinical isolates; Human immunodeficiency virus 1, PBMC, in Homo sapiens, read-out: average IC50, drug-sensitive (wild-type) viruses in PBMCs, n=11 viruses) |
| --- | --- | --- | --- | --- |
| COc1cc2c(cc1Cc1cccc(Cl)c1F)c(=O)c(C(=O)O)cn2[C@H](CO)C(C)C [Compound I, 6-(3-chloro-2-fluorobenzyl)-1-[(2S)-1-hydroxy-3-methylbutan-2-yl]-7-methoxy-4-oxo-1,4-dihydroquinoline-3-carboxylic acid] | 0.35 ± 0.3 nM | 0.1 nM | 1.17 nM | 0.62 ± 0.41 nM |
| O=C1Nc2ccc(Cl)cc2[C@@](C#CC2CC2)(C(F)(F)F)O1 [Efavirenz, efavirenz] | – | 0.3 nM | 0.69 nM | – |
| Cc1c(O)cccc1C(=O)N[C@@H](CSc1ccccc1)[C@H](O)CN1C[C@H]2CCCC[C@H]2C[C@H]1C(=O)NC(C)(C)C [Nelfinavir, nelfinavir mesylate] | – | < 0.1 nM | 0.99 nM | – |
